The values below come from the supplement of paper PMC12645437, “Orthogonal IMiD-Degron Pairs Induce Selective Protein Degradation in Cells” (ACS Chemical Biology, 2025).

This is one part of the list.
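Note: jurkat cells carrying a lentiviral library of mutant zinc finger degrons fused to EGFP plus mCherry, mCherry+ cells FACS sorted, degron abundance counted by next-generation sequencing.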

The experiment deals with no compound (DMSO). Briefly: log2 fold change of degron read counts, EGFP-low vs EGFP+ sorted cells; higher = lower degron-EGFP level without compound (poor expression or instability). The following applies: compound: DMSO control; 18 h.
Turning to FDCDQCGALFTQKGNLLRHIKL, the “log2 fold change of degron read counts” value was -0.443. With FYCNQCGHNFTQKGNLLRHIKL the figure was 0.272; with FECPICGALFTQKGNLLRHIKL, -0.0829; with LVCNQCGFLCTQKGNLLRHIKL, 0.943. For the sequence LGCPICGFLCTQKGNLLRHIKL, the “log2 fold change of degron read counts” value is 1.71. FNCDQCGADFTQKGNLLRHIKL: the “log2 fold change of degron read counts” value was -1.44. With LLCEICGFECTQKGNLLRHIKL the figure was -0.461; with LKCPICGFTCTQKGNLLRHIKL, 0.176. The same measure for FTCEICGAQFTQKGNLLRHIKL: -1.13; for FWCPVCGAGFTQKGNLLRHIKL: 1.01; for FYCPVCGAWFTQKGNLLRHIKL: 0.769. With FVCEICGHRFTQKGNLLRHIKL the figure was -1.35; with FKCNQCGAPFTQKGNLLRHIKL, -1. With FNCSVCGHWFTQKGNLLRHIKL, the “log2 fold change of degron read counts” value stood at 1.38. Take FRCNICGAIFTQKGNLLRHIKL: the “log2 fold change of degron read counts” value was -0.0323.

With FVCEICGATFTQKGNLLRHIKL, the “log2 fold change of degron read counts” value is -2.3. Turning to LDCNQCGFFCTQKGNLLRHIKL, the “log2 fold change of degron read counts” value was found to be 1.9.

Consider FRCPICGALFTQKGNLLRHIKL, for which the “log2 fold change of degron read counts” value was determined as 0.34. With FICNICGAMFTQKGNLLRHIKL the figure was 0.158. The same measure for FNCEVCGANFTQKGNLLRHIKL: -2.07.

Consider FTCEICGHNFTQKGNLLRHIKL, for which the “log2 fold change of degron read counts” value was -1.71. With FGCPICGRKFTQKGNLLRHIKL the figure was -0.984. The same measure for FKCPICGRKFTQKGNLLRHIKL: -1.59.

As for FACNQCGHDFTQKGNLLRHIKL, the “log2 fold change of degron read counts” value stood at 0.0501. Take LECEICGFCCTQKGNLLRHIKL: the “log2 fold change of degron read counts” value was -0.612. With LSCPICGFPCTQKGNLLRHIKL the figure was 1.16; with LHCEICGFKCTQKGNLLRHIKL, -0.746; with FKCNQCGRYFTQKGNLLRHIKL, 0.366. With FICPVCGALFTQKGNLLRHIKL the figure was 0.146. The same measure for LDCNQCGFDCTQKGNLLRHIKL: -0.135; for LKCPICGFRCTQKGNLLRHIKL: 0.15.

Regarding LICPICGFECTQKGNLLRHIKL, the “log2 fold change of degron read counts” value worked out at 0.404. FWCPICGRYFTQKGNLLRHIKL: the “log2 fold change of degron read counts” value was determined as 0.549. For the sequence FCCDICGARFTQKGNLLRHIKL, the “log2 fold change of degron read counts” value is -0.293. The same measure for FHCEVCGAEFTQKGNLLRHIKL: -1.76.

On to FSCPICGHGFTQKGNLLRHIKL, for which the “log2 fold change of degron read counts” value was -0.629. With FKCEICGANFTQKGNLLRHIKL the figure was -1.32. With FACNVCGADFTQKGNLLRHIKL the figure was -0.888; with FDCEQCGAFFTQKGNLLRHIKL, -0.144; with FSCNQCGRTFTQKGNLLRHIKL, -0.335.

For the sequence FRCEICGRAFTQKGNLLRHIKL, the “log2 fold change of degron read counts” value was -1.48. For the sequence FRCNVCGAYFTQKGNLLRHIKL, the “log2 fold change of degron read counts” value worked out at 0.222. With FLCEICGHHFTQKGNLLRHIKL the figure was -1.38; with FICEICGRWFTQKGNLLRHIKL, -0.696. The same measure for FHCDQCGAHFTQKGNLLRHIKL: -0.998; for FNCDVCGASFTQKGNLLRHIKL: -1.9; for FYCNQCGHPFTQKGNLLRHIKL: 0.363. With FRCPICGRPFTQKGNLLRHIKL the figure was 0.153. As for FDCNVCGAVFTQKGNLLRHIKL, the “log2 fold change of degron read counts” value is -0.751. The same measure for FVCEVCGAHFTQKGNLLRHIKL: -1.35.
